Values marked as one replicate rest on one cluster of the flow cell; about a third of the high ones do not repeat.
Tested on: ATP
Assay: switch fluorescence ratio, 500 uM ATP over buffer (Cy3 cluster intensity, sum of 5 cycles each) (fold (ratio)); higher = stronger signal-on switching upon ATP binding; sequences stand for … in TCGTCGGCAGCGTCAGATGTGTATAAGAGACAGTTTTTTTTTTTTTTTTTTTTTTTTT…TC
Details: aptamer strand: ATP DNA aptamer (quencher-CACCTGGGGGAGTATTGCGGAGGAAGG + anchor), 100 nM annealed; ATP concentration: 500 uM; one replicate
Outline: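 The fluorescence ratio divides summed target-cycle Cy3 intensity by summed buffer-cycle Cy3 intensity for each cluster and is averaged per switch-domain sequence. Cy3-labelled switching-strand clusters on a modified Illumina MiSeq flow-cell were annealed to 100 nM quencher-labelled ATP aptamer, then imaged in selection buffer and again after 15 min with 500 uM ATP at 22 °C. Five such cycles were run, with NaOH stripping and re-annealing between them, and clusters outside 100-1000 RFU were excluded.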
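Also: ATP exposure 15 min at 22 °C before imaging.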

Row | Sequence | switch fluorescence ratio
1 | GGTCCATACT | 1
2 | GGTCCATTTA | 0.98
3 | GGTCCCAAAG | 0.986
4 | GGTCCTAAGT | 0.994
5 | GGTCGAAGTT | 1.03
6 | GGTCGAGACT | 1
7 | GGTCGAGTTG | 0.989
8 | GGTCTACTAA | 0.999
9 | GGTCTATCGC | 1
10 | GGTCTATGGC | 0.989
11 | GGTCTCAAAG | 1.02
12 | GGTCTCTGCG | 1.02
13 | GGTCTGCG | 1.01
14 | GGTCTGTCAG | 0.998
15 | GGTCTGTTGC | 0.998
16 | GGTCTTAAAC | 0.989
17 | GGTCTTCAGT | 1.01
18 | GGTCTTCATG | 0.994
19 | GGTCTTGAAA | 0.96
20 | GGTGAAAAAC | 1.02
21 | GGTGAACGTT | 0.993
22 | GGTGAACTAG | 0.996
23 | GGTGACCGCT | 0.992
24 | GGTGACCTCT | 1.01
25 | GGTGACTGAC | 1.1
26 | GGTGACTTTT | 1

Row | Sequence | switch fluorescence ratio
27 | GGTGAGATCG | 1
28 | GGTGAGGATA | 0.929
29 | GGTGAGTGCT | 1
30 | GGTGATACG | 0.993
31 | GGTGATACTT | 1.11
32 | GGTGATTTTG | 0.977
33 | GGTGCAAGTG | 0.967
34 | GGTGCAATTA | 1.17
35 | GGTGCAGAGA | 1
36 | GGTGCCGCAC | 1.05
37 | GGTGCGAAAA | 0.999
38 | GGTGCGAATA | 1.13
39 | GGTGCGACGC | 1.03
40 | GGTGCGCAGG | 0.954
41 | GGTGCGGGT | 1.02
42 | GGTGCGGTCT | 1.03
43 | GGTGCTGGGC | 1.02
44 | GGTGCTTAGC | 1.1
45 | GGTGGATAAA | 0.915
46 | GGTGGATATT | 1
47 | GGTGGCAGCT | 0.944
48 | GGTGGCCGAA | 0.966
49 | GGTGGGCATT | 0.984
50 | GGTGGGTCG | 1.02
51 | GGTGGTCATT | 0.985
52 | GGTGGTGCGT | 0.996

Row | Sequence | switch fluorescence ratio
53 | GGTGGTGTGT | 1.02
54 | GGTGGTTGCG | 1.03
55 | GGTGTAGCCG | 0.979
56 | GGTGTATATA | 0.977
57 | GGTGTCGCTT | 0.973
58 | GGTGTGAAGA | 1.05
59 | GGTGTGGCT | 0.998
60 | GGTGTGGGAA | 0.984
61 | GGTGTGTCAT | 0.987
62 | GGTGTTGCTC | 0.956
63 | GGTTAAATGG | 0.997
64 | GGTTAACGCC | 0.909
65 | GGTTAAGCAG | 1.12
66 | GGTTAATTAT | 1.01
67 | GGTTACCGAT | 1.04
68 | GGTTAGACGG | 0.946
69 | GGTTAGAGA | 1.05
70 | GGTTATAA | 0.97
71 | GGTTATACGT | 0.997
72 | GGTTATCGAA | 0.973
73 | GGTTATTCGC | 0.994
74 | GGTTATTTAT | 1.02
75 | GGTTCACCCG | 0.986
76 | GGTTCAGCA | 1.02
77 | GGTTCAGTCG | 1.03
78 | GGTTCATTCG | 1

Row | Sequence | switch fluorescence ratio
79 | GGTTCCCGTC | 0.883
80 | GGTTCCTGC | 1.01
81 | GGTTCGTACC | 0.979
82 | GGTTCGTTAT | 0.98
83 | GGTTCTAACT | 0.998
84 | GGTTGACCCG | 1.08
85 | GGTTGACGTG | 1.04
86 | GGTTGAGCCC | 0.988
87 | GGTTGAGTTT | 0.939
88 | GGTTGCCGAG | 0.952
89 | GGTTGCGGG | 0.926
90 | GGTTGGGGCG | 0.983
91 | GGTTGTAGAG | 0.97
92 | GGTTGTGCTG | 0.995
93 | GGTTGTGTTG | 0.98
94 | GGTTTAAGAC | 1
95 | GGTTTCATCT | 0.982
96 | GGTTTGCAAC | 1.02
97 | GGTTTGGGAC | 1.02
98 | GGTTTGGGCC | 0.951
99 | GGTTTTAAGG | 0.957
100 | GGTTTTTCC | 0.975
101 | GGTTTTTGT | 1.01

— the supplement of paper PMC10126150
